This note sets out measurements from ChEMBL document CHEMBL1201862, “PubChem BioAssay data set” (2004).

Structures can show the parent of a compound that is named as a salt.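 Cells were grown in 96-well plates and exposed to each compound for 48 hours at five concentrations; endpoints were interpolated linearly between bracketing concentrations, or set to the highest concentration if not reached. GI50 = concentration required for 50% inhibition of growth.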 The source made the active and inactive calls. No stated cut-off is given here; in the data, active = GI50 up to about 1.1 µM and inactive = higher. Peptide text beside a SMILES is read from it.

The test has as its system NCI-H322M. Briefly: growth of human tumour cells (NCI), 48 h.
Regarding `CO[C@H]1C[C@@H]2CC[C@@H](C)[C@@](O)(O2)C(=O)C(=O)N2CCCC[C@H]2C(=O)O[C@H]([C@H](C)C[C@@H]2CC[C@@H](OC(=O)C(C)(CO)CO)[C@H](OC)C2)CC(=O)[C@H](C)/C=C(\C)[C@@H](O)[C@@H](OC)C(=O)[C@H](C)C[C@H](C)/C=C/C=C/C=C/1C` [TEMSIROLIMUS], the GI50 was active: 0.00129 µM. `C[C@@H]1C[C@@H]2OC(=O)[C@]3(C)[C@H]2[C@@H](OC3(C)O)[C@]2(C)C(=O)C=C[C@@H]12` (stereo not given in full) [TENULIN]: the GI50 is inactive: > 100 µM. The figure for `O=C1O[C@H]2[C@H](OC(=O)c3cc(O)c(O)c(O)c3)[C@@H](OC(=O)c3cc(O)c(O)c4c3[C@@H]3C1=CC(=O)C(O)(O)C3(O)O4)[C@H](OC(=O)c1cc(O)c(O)c(O)c1)O[C@@H]2COC(=O)c1cc(O)c(O)c(O)c1` (stereo not given in full) [TERCHEBIN] is inactive: 56.1 µM.

With `CC(C)N1CCN(c2ccc(OCC3COC(Cn4cncn4)(c4ccc(Cl)cc4Cl)O3)cc2)CC1` (stereo not given) [TERCONAZOLE], the GI50 was inactive: 14.5 µM. For the molecule `O=c1n(CC2CO2)c(=O)n(CC2CO2)c(=O)n1CC1CO1` (stereo not given) [TEROXIRONE], the GI50 was inactive: 57.7 µM. The figure for `CCCCCCCCCCCCCCN` [TETRADECYLAMINE] is inactive: > 100 µM. The figure for `Cc1cc(O)c2c3c(ccc2c1)C(=O)c1c(O)cccc1C3=O` [TETRANGULOL] is inactive: 2.45 µM; for `C1=Cc2nc1c(-c1ccccc1)c1nc(c(-c3ccccc3)c3ccc([nH]3)c(-c3ccccc3)c3ccc([nH]3)c2-c2ccccc2)C=C1` [TETRAPHENYLPORPHYRIN] it is inactive: > 100 µM.

On to `Cn1c(=O)c2nc[nH]c2n(C)c1=O` [THEOPHYLLINE], for which the GI50 was inactive: > 100 µM. The figure for `c1ccc2[nH]c(-c3cscn3)nc2c1` [THIABENDAZOLE] is inactive: > 100 µM; for `CC(=O)Nc1c2sscc-2n(C)c1=O` [THIOLUTIN] it is inactive: 1.55 µM. The figure for `O=c1oc(-c2ccc(O)c(O)c2)cc2cccc(O)c12` [THUNBERGINOL A] is inactive: 3.57 µM. The figure for `Nc1n[n+]([O-])c2ccccc2[n+]1[O-]` [TIRAPAZAMINE] is inactive: > 100 µM; for `Cc1cc2nc3ccc(N(C)C)cc3[s+]c2cc1N` [TOLONIUM CHLORIDE] it is inactive: 12.8 µM; for `CN(C)CCOc1ccc(/C(=C(/CCCl)c2ccccc2)c2ccccc2)cc1` [TOREMIFENE CITRATE] it is inactive: 16.7 µM. Turning to `O=C1N[C@@H](Cc2ccccc2)C(=O)N2CCC[C@@H]2C(=O)N[C@@H](CCCCCC(=O)[C@@H]2CO2)C(=O)N[C@H]1Cc1ccccc1` [TRAPOXIN B] (HELM PEPTIDE1{F.F.[dP].[O=C(CCCCC[C@H](N[*:1])C(=O)[*:2])[C@@H]1CO1]}$PEPTIDE1,PEPTIDE1,1:R1-4:R2$$$V2.0), the GI50 was active: 0.0175 µM. The figure for `O=C(NCCN(CCNC(=O)c1cccc(O)c1O)CCNC(=O)c1cccc(O)c1O)c1cccc(O)c1O` [TRENCAM] is inactive: 10.7 µM; for `NC(=O)c1cc(N2CC2)c([N+](=O)[O-])cc1[N+](=O)[O-]` [TRETAZICAR] it is inactive: > 100 µM; for `CC1=C(/C=C/C(C)=C/C=C/C(C)=C/C(=O)O)C(C)(C)CCC1` [TRETINOIN] it is inactive: > 76.4 µM. Take `CN(CO)c1nc(N(C)CO)nc(N(C)CO)n1` [TRIMELAMOL]: the GI50 was inactive: 21.9 µM.

For `Cc1cc2cc3c(C)cc(=O)oc3c(C)c2o1` [TRIOXSALEN], the GI50 is inactive: > 100 µM. The figure for `CC(C)[C@]12O[C@H]1[C@@H]1O[C@]13[C@]1(O[C@H]1C[C@H]1C4=C(CC[C@@]13C)C(=O)OC4)[C@@H]2O` [TRIPTOLIDE] is active: 0.0113 µM; for `COc1ccc(/C=C/c2cc(OC)cc(OC)c2)cc1` [TRISMETHOXYRESVERATROL] it is inactive: 6.49 µM; for `O=c1cccccc1O` [TROPOLONE] it is inactive: > 100 µM. The figure for `O=C1c2ccccc2-n2c1nc1ccccc1c2=O` [TRYPTANTHRIN] is inactive: 11.3 µM; for `CC[C@H]1CN2CCc3cc(OC)c(OC)cc3[C@@H]2C[C@@H]1C[C@H]1NCCc2c1[nH]c1ccc(O)cc21` [TUBULOSINE] it is active: 0.0124 µM. The figure for `N#C/C(=C\c1ccc(O)c(O)c1)C(N)=S` [TYRPHOSTIN 47] is inactive: > 87.3 µM; for `CC(C)=CCOc1cc(NC(=S)c2ccoc2C)ccc1Cl` [UC 781] it is inactive: > 100 µM. Turning to `C[C@H](CCC(=O)O)[C@H]1CC[C@H]2[C@@H]3[C@@H](O)C[C@@H]4C[C@H](O)CC[C@]4(C)[C@H]3CC[C@]12C` [URSODIOL], the GI50 is inactive: > 100 µM. The figure for `C[C@]12CC[C@H](O[C@@H]3O[C@H](CO[C@@H]4O[C@H](CO)[C@@H](O)[C@H](O)[C@H]4O)[C@@H](O)[C@H](O)[C@H]3O)C[C@@H]1CC[C@@H]1[C@@H]2CC[C@]2(C)[C@@H](C3=CC(=O)OC3)CC[C@]12O` [UZARIN] is inactive: 38.5 µM.

For `CCCC(CCC)C(=O)O` [VALPROIC ACID], the GI50 was inactive: 9400 µM.

For `CC[C@]12CCCN3CCc4c(n(c5ccccc45)C(=O)C1)[C@@H]32` [VINBURNINE], the GI50 was inactive: 13.2 µM. The figure for `CC1=C(CO)C(=O)O[C@@H]([C@@H](C)[C@H]2CC[C@H]3[C@@H]4C[C@H]5O[C@]56[C@@H](O)C=CC(=O)[C@]6(C)[C@H]4CC[C@]23C)C1` [WITHAFERIN A] is inactive: 4.63 µM; for `COc1c(O)cc(O)c2c(=O)cc(-c3ccccc3)oc12` [WOGONIN] it is inactive: 55.8 µM. The figure for `COc1c2c(cc3oc(=O)ccc13)OC(C)(C)C=C2` [XANTHOXYLETIN] is inactive: 35.3 µM.
